The record followed here is PMC10933458.

Experiment [1] has as its target full-length human BRI2 tagged with a 3xFLAG at the N-terminus (3xFLAG-BRI2) (human) (UniProt Q9Y287). The experiment in a line: co-IP; HEK293 cells transfected with bicistronic plasmids 3xFLAG-BRI2 + TREM2-Myc variants; 3xFLAG-BRI2 precipitated with M2; blot with anti-human TREM2-NT or TREM2-CT; three independent transfections.
Experiment [2] addresses T1, endogenous mouse Trem2 (mouse (endogenous in primary macrophages)) (UniProt Q99NH8).
T1 sequence: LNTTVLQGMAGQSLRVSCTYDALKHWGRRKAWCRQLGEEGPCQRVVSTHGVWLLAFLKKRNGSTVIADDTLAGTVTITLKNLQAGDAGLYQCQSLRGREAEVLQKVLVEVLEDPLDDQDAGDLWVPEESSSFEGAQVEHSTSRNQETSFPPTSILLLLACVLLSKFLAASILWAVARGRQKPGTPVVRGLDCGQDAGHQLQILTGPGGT
The experiment in a line: co-IP; endogenous proteins; lysate of WT or Itm2b-KO mouse primary macrophages (0.5% NP40) precipitated with αTrem2-CT and protein A/G agarose; deglycosylated before the blot; done once.

Experiment [3] concerns the target recombinant BRI2-BRICHOS (human) (UniProt Q9Y287). Briefly: pull-down; cell-free; 3xFLAG-tagged BRI2-BRICHOS or BRI2-ECD with sTREM2 or TREM2-ECD, 2 μM each (also 4, 2, 1, 0.5, 0.25 and 0 μM BRI2 protein with 2 μM TREM2 protein), overnight at 4 degrees Celsius with M2-Agarose beads; washed, eluted with 3xFLAG peptide; blot with M2 or TREM2-NT; both purified.
In experiment [4] the target is recombinant BRI2-ECD (human) (UniProt Q9Y287). The experiment is described as above.

These are yes or no findings as the source states them, for the method shown. For some assays here: Binding seen in cells or lysates may run through a third protein. Some binding calls cover weakened binding; strength is not graded here. For some assays here: Where a sequence is shown, tags or fusion partners need not be part of it.

B1: TREM2-δ/α-site-Myc (lacking amino acids 152–163, including the α-secretase cleavage site) (receptor, UniProt Q9NZC2)
chain: HNTTVFQGVAGQSLQVSCPYDSMKHWGRRKAWCRQLGEKGPCQRVVSTHNLWLLSFLRRWNGSTAITDDTLGGTLTITLRNLQPHDAGLYQCQSLHGSEADTLRKVLVEVLADPLDHRDAGDLWFPGESESFELEGEIPFPPTSILLLLACIFLIKILAASALWAAAWHGQKPGTHPPSELDCGHDPGYQLQTLPGLRDT
As for B1, the binding result in experiment [1] is given as “binds”.

B2: TREM2-δIg-like-Myc (lacking the Ig-like domain of TREM2 spanning amino acids 29-112) (receptor, UniProt Q9NZC2)
chain: HNTTVFQGVALHGSEADTLRKVLVEVLADPLDHRDAGDLWFPGESESFEDAHVEHSISRSLLEGEIPFPPTSILLLLACIFLIKILAASALWAAAWHGQKPGTHPPSELDCGHDPGYQLQTLPGLRDT
Take B2: the binding entry in experiment [1] was “binds”.

B3: endogenous mouse Bri2 (protein, UniProt O89051 1-266)
chain: MVKVTFNSALAQKEAKKDEPKSSEEALIVPPDAVAVDCKDPGDVVPVGQRRAWCWCMCFGLAFMLAGVILGGAYLYKYFALQPDDVYYCGLKYIKDDVILNEPSADAPAARYQTIEENIKIFEEDAVEFISVPVPEFADSDPANIVHDFNKKLTAYLDLNLDKCYVIPLNTSIVMPPKNLLELLINIKAGTYLPQSYLIHEHMVITDRIENVDNLGFFIYRLCHDKETYKLQRRETIRGIQKREASNCFTIRHFENKFAVETLICS
On to B3, for which the binding entry in experiment [2] was “binds”.

B4: TREM2-W198Ter-Myc (TREM2 W198Ter variant, a truncated TREM2 protein lacking the intracellular domain) (receptor, UniProt Q9NZC2 19-197)
chain: HNTTVFQGVAGQSLQVSCPYDSMKHWGRRKAWCRQLGEKGPCQRVVSTHNLWLLSFLRRWNGSTAITDDTLGGTLTITLRNLQPHDAGLYQCQSLHGSEADTLRKVLVEVLADPLDHRDAGDLWFPGESESFEDAHVEHSISRSLLEGEIPFPPTSILLLLACIFLIKILAASALWAAA
Consider B4, for which the binding entry in experiment [1] was “binds”.

B5: recombinant TREM2-ECD (domain or fragment, UniProt Q9NZC2 19-174)
chain: HNTTVFQGVAGQSLQVSCPYDSMKHWGRRKAWCRQLGEKGPCQRVVSTHNLWLLSFLRRWNGSTAITDDTLGGTLTITLRNLQPHDAGLYQCQSLHGSEADTLRKVLVEVLADPLDHRDAGDLWFPGESESFEDAHVEHSISRSLLEGEIPFPPTS
Take B5: the binding result in experiment [3] and in experiment [4] was “binds” throughout.

B6: TREM2-CTF-Myc (comprising amino acids 158-230) (domain or fragment, UniProt Q9NZC2 158-230)
chain: SISRSLLEGEIPFPPTSILLLLACIFLIKILAASALWAAAWHGQKPGTHPPSELDCGHDPGYQLQTLPGLRDT
As for B6, in experiment [1], the binding result is given as “binds weakly”.

B7: full-length human TREM2 tagged with a Myc epitope at the C-terminus (TREM2-Myc) (receptor, UniProt Q9NZC2 19-230)
chain: HNTTVFQGVAGQSLQVSCPYDSMKHWGRRKAWCRQLGEKGPCQRVVSTHNLWLLSFLRRWNGSTAITDDTLGGTLTITLRNLQPHDAGLYQCQSLHGSEADTLRKVLVEVLADPLDHRDAGDLWFPGESESFEDAHVEHSISRSLLEGEIPFPPTSILLLLACIFLIKILAASALWAAAWHGQKPGTHPPSELDCGHDPGYQLQTLPGLRDT
For the molecule B7, in experiment [1], the binding entry was “binds”.
